Data as given in the supplement of paper PMC4967469.
pIC50: −log10 of the molar value. IC50 is the fitted dose that halves viability relative to control wells, and lower means more sensitive; where the fit passes the top or lowest dose, that dose stands as a limit. The AUC spans the tested range (256-fold, ending at the top dose) of the same fit; it is 1 without any effect and falls as sensitivity rises. For part of these data: The top dose, if marked as inferred, comes from the curve model; the source does not state it.

Assays:
Assay in all cases: Viability of human cancer cell lines after 72 h of drug (GDSC screen)
PF-4708671 = compound: CCc1cncnc1N1CCN(Cc2nc3ccc(C(F)(F)F)cc3[nH]2)CC1 [PF-4708671]; conditions: top dose 10 µM; top dose inferred
Description: (§1)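 Human cancer cell lines in 384-well plates, medium with 10% serum, drug for 72 h over a 256-fold dose range (nine 2-fold or five 4-fold steps up to the top dose). Adherent lines were fixed and stained with the nucleic acid dye Syto60, suspension lines read with resazurin; signal relative to control wells, capped at 0 and 100%. One two-parameter sigmoid per drug and line, fitted in a mixed model over all curves with the slope shared within a line.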

I-BET-762 = compound: CCNC(=O)C[C@@H]1N=C(c2ccc(Cl)cc2)c2cc(OC)ccc2-n2c(C)nnc21 [I-BET-762]; conditions: top dose 20 µM; top dose inferred
Description: as §1

HG-6-64-1 = compound: CCN1CCN(Cc2ccc(NC(=O)c3ccc(C)c(/C=C/c4cnc5[nH]ccc5c4OC)c3)cc2C(F)(F)F)CC1 [HG-6-64-1]; conditions: top dose 5.12 µM; top dose inferred
Description: as §1

Trametinib = compound: CC(=O)Nc1cccc(-n2c(=O)n(C3CC3)c(=O)c3c(Nc4ccc(I)cc4F)n(C)c(=O)c(C)c32)c1 [Trametinib]; conditions: top dose 1 µM
Description: as §1

KIN001-244 = compound: O=C(NC(COc1ccc2[nH]c(=O)[nH]c2c1)c1ccccc1)c1cccn(Cc2ccc(F)c(F)c2)c1=O [KIN001-244]; conditions: top dose 20 µM; top dose inferred
Description: as §1

AV-951 = compound: COc1cc2nccc(Oc3ccc(NC(=O)Nc4cc(C)on4)c(Cl)c3)c2cc1OC [AV-951]; conditions: top dose 0.128 µM; top dose inferred
Description: as §1

Cell Line	AUC (PF-4708671)	pIC50 (PF-4708671)	AUC (I-BET-762)	pIC50 (I-BET-762)	AUC (HG-6-64-1)	pIC50 (HG-6-64-1)	AUC (Trametinib)	pIC50 (Trametinib)	AUC (KIN001-244)	pIC50 (KIN001-244)	AUC (AV-951)	pIC50 (AV-951)
HCC-44 (lung adenocarcinoma, adherent)	0.896	< 5.00	0.785	5.08	0.69	5.97	0.245	7.93	0.843	4.86	0.986	< 6.89
HCC-56 (large intestine, adherent)	0.982	< 5.00	0.89	< 4.70	0.858	5.36	0.329	7.69	0.943	< 4.70	0.987	< 6.89
HCC-827 (lung adenocarcinoma, adherent)	0.981	< 5.00	0.983	< 4.70	0.706	5.87	0.883	< 6.00	0.94	< 4.70	0.983	< 6.89
HCT-15 (large intestine, adherent)	0.966	< 5.00	0.952	< 4.70	0.629	6.13	0.947	< 6.00	0.915	< 4.70	0.98	< 6.89
HDQ-P1 (breast, adherent)	0.974	< 5.00	0.984	< 4.70	0.787	5.57	0.882	< 6.00	0.934	< 4.70	0.983	< 6.89
HEC-1 (endometrium, adherent)	0.969	< 5.00	0.989	< 4.70	0.776	5.71	0.979	< 6.00	0.978	< 4.70	0.989	< 6.89
HGC-27 (stomach, adherent)	0.907	< 5.00	0.847	4.94	0.457	6.60	0.984	< 6.00	0.781	5.16	0.988	< 6.89
HLE (liver, adherent)	0.981	< 5.00	0.92	< 4.70	0.667	6.04	0.909	< 6.00	0.808	5.02	0.986	< 6.89
HN (head and neck, adherent)	0.966	< 5.00	0.989	< 4.70	0.969	< 5.29	0.221	7.99	0.989	< 4.70	0.987	< 6.89
HO-1-N-1 (head and neck, adherent)	0.965	< 5.00	0.984	< 4.70	0.878	5.35	0.158	8.20	0.973	< 4.70	0.989	< 6.89
HO-1-u-1 (head and neck, adherent)	0.976	< 5.00	0.967	< 4.70	0.854	5.42	0.855	6.13	0.946	< 4.70	0.983	< 6.89
HOP-92 (large cell lung carcinoma, adherent)	0.969	< 5.00	0.976	< 4.70	0.699	5.89	0.411	7.47	0.979	< 4.70	0.981	< 6.89
HOS (osteosarcoma, adherent)	0.99	< 5.00	0.992	< 4.70	0.66	6.09	0.966	< 6.00	0.99	< 4.70	0.991	< 6.89
HPAF-II (pancreas, adherent)	0.932	< 5.00	0.972	< 4.70	0.795	5.49	0.185	8.30	0.82	4.79	0.967	< 6.89
HSC-3 (head and neck, adherent)	0.99	< 5.00	0.99	< 4.70	0.666	6.07	0.106	8.36	0.926	< 4.70	0.99	< 6.89
HSC-4 (head and neck, adherent)	0.934	< 5.00	0.978	< 4.70	0.867	< 5.29	0.592	6.91	0.924	< 4.70	0.978	< 6.89
HT-115 (large intestine, adherent)	0.97	< 5.00	0.965	< 4.70	0.941	< 5.29	0.869	6.10	0.991	< 4.70	0.991	< 6.89
HT-1080 (fibrosarcoma, adherent)	0.91	< 5.00	0.988	< 4.70	0.761	5.79	0.406	7.45	0.905	< 4.70	0.989	< 6.89
HT-1197 (bladder, adherent)	0.935	< 5.00	0.945	< 4.70	0.725	5.80	0.798	6.24	0.945	< 4.70	0.984	< 6.89
HT-1376 (bladder, adherent)	0.984	< 5.00	0.985	< 4.70	0.733	5.77	0.853	< 6.00	0.985	< 4.70	0.985	< 6.89
HTC-C3 (thyroid, adherent)	0.956	< 5.00	0.76	5.10	0.61	6.18	0.151	8.36	0.782	5.02	0.984	< 6.89
HeLa (cervix, adherent)	0.979	< 5.00	0.984	< 4.70	0.788	5.67	0.759	6.48	0.908	< 4.70	0.989	< 6.89
